According to the supplement of paper PMC12217912:
Some of the results follow. The full chains were built here from the parent and the listed change. Values near 0.05 are background.

B1: TEV protease; numbered along this chain (parent)
chain: MGESLFKGPRDYNPISSSICHLTNESDGHTTSLYGIGFGPFIITNKHLFRRNNGTLVVQSLHGVFKVKDTTTLQQHLVDGRDMIIIRMPKDFPPFPQKLKFREPQREERICLVTTNFQTKSMSSMVSDTSCTFPSGDGIFWKHWIQTKDGQCGSPLVSTRDGFIVGIHSASNFTNTNNYFTSVPKNFMELLTNQEAQQWVSGWRLNADSVLWGGHKVFMVKPEEPFQPVKEATQL

Variants of: B1
Assay: raw area under fraction-flipped curve 0-4 h after induction (AUC4h, not background-subtracted), DNA-recorder readout of cleavage of the substrate (dimensionless); higher = more cleavage of the substrate by the protease variant
Settings: temperature: 34 °C; time window: 0-4 h after rhamnose induction
Procedure: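 In vivo DNA recorder in E. coli TOP10(DE3) ΔrhaA at 34 °C. Each TEVp single-site mutant (parent TEVp 0) is paired with a single-site variant of the 7-mer TEVs (canonical ENLYFQ|S). The substrate sits between flexible linkers in a Bxb1-sfGFP-TEVs-SsrA fusion, so cleavage stabilises Bxb1 and speeds flipping of a recombination array, read by NGS. The value is the raw area under the fraction-flipped curve over 0-4 h after rhamnose induction (AUC4h), with ≥20 reads per time point. It is not background-subtracted; inactive controls average about 0.047.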
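Also: Bxb1 expression induced with 0.2% (w/v) L-rhamnose at OD600 near 0.5, cultures sampled hourly, flipped fraction per protease–substrate barcode pair counted by paired-end Illumina sequencing.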

Variant	area with substrate ENLYFAS	area with substrate ENLYFES	area with substrate ENLYFFS	area with substrate ENLYFIS	area with substrate ENLYFMS	area with substrate ENLYFNS	area with substrate ENLYFPS	area with substrate ENLYFRS	area with substrate ENLYFTS	area with substrate ENLYFVS	area with substrate ENLYFWS	area with substrate ENLYFYS	area with substrate ENLYFCS	area with substrate ENLYFKS	area with substrate ENLYFLS	area with substrate ENLYFSS	area with substrate ENLYFDS	area with substrate ENLYFGS	area with substrate ENLYFHS
MGESLFKGPRDYNPISSSICHLTNESDKHTTSLYGIGFGPFIITNKHLFRRNNGTLVVQSLHGVFKVKDTTTLQQHLVDGRDMIIIRMPKDFPPFPQKLKFREPQREERICLVTTNFQTKSMSSMVSDTSCTFPSGDGIFWKHWIQTKDGQCGSPLVSTRDGFIVGIHSASNFTNTNNYFTSVPKNFMELLTNQEAQQWVSGWRLNADSVLWGGHKVFMVKPEEPFQPVKEATQL [G28K]	0.0614	0.0573	0.0655	0.058	0.0705	0.0599	0.0847	0.0785	0.0559	0.0517	0.0698	0.0556							
MGESLFKGPRDYNPISSSICHLTNESDFHTTSLYGIGFGPFIITNKHLFRRNNGTLVVQSLHGVFKVKDTTTLQQHLVDGRDMIIIRMPKDFPPFPQKLKFREPQREERICLVTTNFQTKSMSSMVSDTSCTFPSGDGIFWKHWIQTKDGQCGSPLVSTRDGFIVGIHSASNFTNTNNYFTSVPKNFMELLTNQEAQQWVSGWRLNADSVLWGGHKVFMVKPEEPFQPVKEATQL [G28F]	0.0721		0.0759	0.0585			0.0557		0.0569	0.0602	0.0527	0.0622	0.0581	0.0627					
MGESLFKGPRDYNPISSSICHLTNESDGHTDSLYGIGFGPFIITNKHLFRRNNGTLVVQSLHGVFKVKDTTTLQQHLVDGRDMIIIRMPKDFPPFPQKLKFREPQREERICLVTTNFQTKSMSSMVSDTSCTFPSGDGIFWKHWIQTKDGQCGSPLVSTRDGFIVGIHSASNFTNTNNYFTSVPKNFMELLTNQEAQQWVSGWRLNADSVLWGGHKVFMVKPEEPFQPVKEATQL [T31D]	0.0621	0.0628	0.0699	0.0572	0.0649	0.0499	0.0617		0.0495		0.0536	0.0585	0.06	0.0575	0.0619	0.0571			
MGESLFKGPRDYNPISSSICHLTNESDGHTNSLYGIGFGPFIITNKHLFRRNNGTLVVQSLHGVFKVKDTTTLQQHLVDGRDMIIIRMPKDFPPFPQKLKFREPQREERICLVTTNFQTKSMSSMVSDTSCTFPSGDGIFWKHWIQTKDGQCGSPLVSTRDGFIVGIHSASNFTNTNNYFTSVPKNFMELLTNQEAQQWVSGWRLNADSVLWGGHKVFMVKPEEPFQPVKEATQL [T31N]	0.0704	0.0416	0.0656	0.0511	0.0694	0.0691	0.0627		0.0577	0.0562	0.0505	0.0648	0.0689	0.0602	0.0582	0.0558	0.063	0.0559	0.0643
MGESLFKGPRDYNPISSSIPHLTNESDGHTTSLYGIGFGPFIITNKHLFRRNNGTLVVQSLHGVFKVKDTTTLQQHLVDGRDMIIIRMPKDFPPFPQKLKFREPQREERICLVTTNFQTKSMSSMVSDTSCTFPSGDGIFWKHWIQTKDGQCGSPLVSTRDGFIVGIHSASNFTNTNNYFTSVPKNFMELLTNQEAQQWVSGWRLNADSVLWGGHKVFMVKPEEPFQPVKEATQL [C20P]	0.0512	0.0531	0.0577	0.0474	0.0537		0.0514	0.0609	0.0518	0.0486	0.0351		0.0499	0.0517	0.0374	0.0354			0.0537
MGESLFKGPRDYNPISSSICHLTNEDDGHTTSLYGIGFGPFIITNKHLFRRNNGTLVVQSLHGVFKVKDTTTLQQHLVDGRDMIIIRMPKDFPPFPQKLKFREPQREERICLVTTNFQTKSMSSMVSDTSCTFPSGDGIFWKHWIQTKDGQCGSPLVSTRDGFIVGIHSASNFTNTNNYFTSVPKNFMELLTNQEAQQWVSGWRLNADSVLWGGHKVFMVKPEEPFQPVKEATQL [S26D]	0.0664	0.0587		0.0636	0.066	0.0727	0.0607	0.0576	0.0588		0.0515	0.0636		0.0699	0.0527	0.0665			
MGESLFKGPRDYNPISSSICHLTNESDGKTTSLYGIGFGPFIITNKHLFRRNNGTLVVQSLHGVFKVKDTTTLQQHLVDGRDMIIIRMPKDFPPFPQKLKFREPQREERICLVTTNFQTKSMSSMVSDTSCTFPSGDGIFWKHWIQTKDGQCGSPLVSTRDGFIVGIHSASNFTNTNNYFTSVPKNFMELLTNQEAQQWVSGWRLNADSVLWGGHKVFMVKPEEPFQPVKEATQL [H29K]	0.06		0.0695	0.0519	0.0433	0.0644	0.0635	0.0623	0.0558			0.0355					0.0537		
MGESLFKGPRDYNPISSSICHLTNESDGVTTSLYGIGFGPFIITNKHLFRRNNGTLVVQSLHGVFKVKDTTTLQQHLVDGRDMIIIRMPKDFPPFPQKLKFREPQREERICLVTTNFQTKSMSSMVSDTSCTFPSGDGIFWKHWIQTKDGQCGSPLVSTRDGFIVGIHSASNFTNTNNYFTSVPKNFMELLTNQEAQQWVSGWRLNADSVLWGGHKVFMVKPEEPFQPVKEATQL [H29V]	0.0512	0.0715	0.0766		0.0628	0.0585	0.0712	0.0661	0.0768	0.0517		0.0555			0.0619	0.0488	0.02	0.0632	0.0515
MGESLFKGPRDYNPISSSICHLTNESDGSTTSLYGIGFGPFIITNKHLFRRNNGTLVVQSLHGVFKVKDTTTLQQHLVDGRDMIIIRMPKDFPPFPQKLKFREPQREERICLVTTNFQTKSMSSMVSDTSCTFPSGDGIFWKHWIQTKDGQCGSPLVSTRDGFIVGIHSASNFTNTNNYFTSVPKNFMELLTNQEAQQWVSGWRLNADSVLWGGHKVFMVKPEEPFQPVKEATQL [H29S]	0.0661	0.0627	0.0677	0.0574	0.0646	0.0641	0.0575	0.0641	0.0298	0.0602	0.05		0.0649	0.0337					
MGESLFKGPRDYNPISSSICHLTNLSDGHTTSLYGIGFGPFIITNKHLFRRNNGTLVVQSLHGVFKVKDTTTLQQHLVDGRDMIIIRMPKDFPPFPQKLKFREPQREERICLVTTNFQTKSMSSMVSDTSCTFPSGDGIFWKHWIQTKDGQCGSPLVSTRDGFIVGIHSASNFTNTNNYFTSVPKNFMELLTNQEAQQWVSGWRLNADSVLWGGHKVFMVKPEEPFQPVKEATQL [E25L]	0.0522	0.0698	0.042	0.0513	0.0692	0.067	0.0651	0.0652	0.069	0.0791	0.0594		0.0578	0.0668	0.0654	0.055	0.0534	0.0488	
MGESLFKGPRDYNPISSSICHLTNDSDGHTTSLYGIGFGPFIITNKHLFRRNNGTLVVQSLHGVFKVKDTTTLQQHLVDGRDMIIIRMPKDFPPFPQKLKFREPQREERICLVTTNFQTKSMSSMVSDTSCTFPSGDGIFWKHWIQTKDGQCGSPLVSTRDGFIVGIHSASNFTNTNNYFTSVPKNFMELLTNQEAQQWVSGWRLNADSVLWGGHKVFMVKPEEPFQPVKEATQL [E25D]	0.0373	0.0616	0.0738	0.0462	0.0731		0.0514	0.0413	0.0403		0.0621	0.062	0.0618						0.0605
MGESLFKGPRDYNPISSSICHLTNVSDGHTTSLYGIGFGPFIITNKHLFRRNNGTLVVQSLHGVFKVKDTTTLQQHLVDGRDMIIIRMPKDFPPFPQKLKFREPQREERICLVTTNFQTKSMSSMVSDTSCTFPSGDGIFWKHWIQTKDGQCGSPLVSTRDGFIVGIHSASNFTNTNNYFTSVPKNFMELLTNQEAQQWVSGWRLNADSVLWGGHKVFMVKPEEPFQPVKEATQL [E25V]	0.0659	0.068	0.0712	0.0624	0.067	0.0714	0.0571	0.041		0.0524		0.0736			0.0447	0.0627			0.0623
MGESLFKGPRDYNPISSSICHLVNESDGHTTSLYGIGFGPFIITNKHLFRRNNGTLVVQSLHGVFKVKDTTTLQQHLVDGRDMIIIRMPKDFPPFPQKLKFREPQREERICLVTTNFQTKSMSSMVSDTSCTFPSGDGIFWKHWIQTKDGQCGSPLVSTRDGFIVGIHSASNFTNTNNYFTSVPKNFMELLTNQEAQQWVSGWRLNADSVLWGGHKVFMVKPEEPFQPVKEATQL [T23V]	0.0481	0.0661	0.0683	0.0502	0.075	0.063	0.0568	0.0658	0.0623	0.056	0.06		0.0532	0.0595	0.0587	0.0699	0.0529		0.068
MGESLFKGPRDYNPISSSICHLHNESDGHTTSLYGIGFGPFIITNKHLFRRNNGTLVVQSLHGVFKVKDTTTLQQHLVDGRDMIIIRMPKDFPPFPQKLKFREPQREERICLVTTNFQTKSMSSMVSDTSCTFPSGDGIFWKHWIQTKDGQCGSPLVSTRDGFIVGIHSASNFTNTNNYFTSVPKNFMELLTNQEAQQWVSGWRLNADSVLWGGHKVFMVKPEEPFQPVKEATQL [T23H]	0.0639		0.0609	0.0477	0.0642	0.0688	0.0633		0.0481		0.0517	0.0593	0.0583	0.0617	0.0586		0.0621		
MGESLFKGPRDYNPISSSMCHLTNESDGHTTSLYGIGFGPFIITNKHLFRRNNGTLVVQSLHGVFKVKDTTTLQQHLVDGRDMIIIRMPKDFPPFPQKLKFREPQREERICLVTTNFQTKSMSSMVSDTSCTFPSGDGIFWKHWIQTKDGQCGSPLVSTRDGFIVGIHSASNFTNTNNYFTSVPKNFMELLTNQEAQQWVSGWRLNADSVLWGGHKVFMVKPEEPFQPVKEATQL [I19M]	0.0477	0.0677		0.0536	0.0745	0.0654	0.0656	0.0479	0.0619	0.0675	0.0511	0.0737	0	0.0627		0.0574	0.0568	0.0617	0.0568
MGESLFKGPRDYNPISSSICLLTNESDGHTTSLYGIGFGPFIITNKHLFRRNNGTLVVQSLHGVFKVKDTTTLQQHLVDGRDMIIIRMPKDFPPFPQKLKFREPQREERICLVTTNFQTKSMSSMVSDTSCTFPSGDGIFWKHWIQTKDGQCGSPLVSTRDGFIVGIHSASNFTNTNNYFTSVPKNFMELLTNQEAQQWVSGWRLNADSVLWGGHKVFMVKPEEPFQPVKEATQL [H21L]	0.0456	0.0714	0.068	0.0476	0.0747				0.0606	0.0292		0.064	0.0638	0.0619	0.0695		0.0452		0.0612
MGESLFKGPRDYNPISSSICRLTNESDGHTTSLYGIGFGPFIITNKHLFRRNNGTLVVQSLHGVFKVKDTTTLQQHLVDGRDMIIIRMPKDFPPFPQKLKFREPQREERICLVTTNFQTKSMSSMVSDTSCTFPSGDGIFWKHWIQTKDGQCGSPLVSTRDGFIVGIHSASNFTNTNNYFTSVPKNFMELLTNQEAQQWVSGWRLNADSVLWGGHKVFMVKPEEPFQPVKEATQL [H21R]	0.0663	0.0647	0.069	0.0596	0.0594	0.066	0.0492		0.0585	0.0539	0.0547		0.0262	0.0608	0.0603	0.0625	0.0884		0.0492
MGESLFKGPRDYNPISSSICHNTNESDGHTTSLYGIGFGPFIITNKHLFRRNNGTLVVQSLHGVFKVKDTTTLQQHLVDGRDMIIIRMPKDFPPFPQKLKFREPQREERICLVTTNFQTKSMSSMVSDTSCTFPSGDGIFWKHWIQTKDGQCGSPLVSTRDGFIVGIHSASNFTNTNNYFTSVPKNFMELLTNQEAQQWVSGWRLNADSVLWGGHKVFMVKPEEPFQPVKEATQL [L22N]	0.044	0.0653	0.0643	0.0553	0.0527		0.0569	0.0427	0.0524		0.038		0.0579	0.0486	0.0499				
